# Data as given in the supplement of paper PMC11417369.
# ± gives the standard deviation of the averaged measurements. The list shows a part of the results.
# Test system: PfAP2-EXP AP2 domain (GST-tagged)
# Assay: gcPBM binding intensity (ln(normalized median fluorescence intensity)); higher = stronger DNA binding
# Method in brief: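 Using an Agilent 4 × 180k array, primer-extended double-stranded 36-bp intergenic genomic probes and negative controls were exposed for 1 h to GST-fused P. falciparum DNA-binding domains expressed in E. coli. Binding was carried out in 1× PBS with 1% milk, 0.2 mg/ml BSA, 0.5% salmon testes DNA and 0.03% Triton X-100, and protein was detected with Alexa488 anti-GST antibody and a 488 nm scan. Binding intensity is the highest Masliner-normalised natural-log median intensity across replicate spots of either probe orientation.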
row,Sequence,gcPBM binding intensity (ln)
1,GTAATTTTATATGGTTGTACATATATATATATATAT [XGTACX_site6659],10.2 ± 0.18
2,CAACAACAAAAAAAAAAATAATAATAATAAAAAATA [TGCATGCA_negctrl_site271],8.34 ± 0.49
3,CGCATAAAGACAAGAACACACATATATATTGTAGTA [CACACA_site5938],8.47 ± 0.34
4,ATATACAAAGGATTAACACACATATTATTATATATA [CACACA_site1880],8.43 ± 0.36
5,AGAAAAAAATAATGTACACACACATATATGTTTATA [CACACA_site7946],8.51 ± 0.38
6,TATTTTTTAAAAAAATGTCATAAAATTTCTTTTTTC [XGTACX_negctrl_site271],8.03 ± 0.35
7,CTTTCTATATAAAATCGTACATATATAATATTATAT [XGTACX_site5807],8.52 ± 0.38
8,TAAATGTCTGTTAATGCACACGATATGTCTATATAT [CACACA_site2352],8.69 ± 0.16
9,TATATTAAGAAACACACACACATATATATATATATA [CACACA_site1609],10.2 ± 0.3
10,GAAATTATAAATTGGACACACACATAAAAAATATGT [CACACA_site7957],8.52 ± 0.38
11,TTCCTATTTCCTATGTGTACTTATAAATAAGTGTCT [XGTACX_site3725],9.01 ± 0.39
12,TCCGCATGTACATGGGTGCACATAACACCCATTTAA [GTGCAC_site9881],8.825 ± 0.035
13,TATATATAAGATTGATGTACGATTTTGGTGTCTTAT [XGTACX_site2611],8.47 ± 0.33
14,TGTTATGAGAACAGCACACAAGCTACATCATATATA [CACACA_site870],8.37 ± 0.35
15,TATTATAGTATATATTGTACATATATATATTTTTTA [XGTACX_site8831],8.35 ± 0.37
16,ATAATAATATATAGTACACACAAAAATGGAAGTAAA [CACACA_site3318],8.97 ± 0.34
17,ATAGTTTTTCCAATTCAAAAAAAAAAAAAAAAAAAA [CACACA_negctrl_site969],7.84 ± 0.29
18,TAAAAATATTATAATGCATGCAAAATATTGTTATAA [TGCATGCA_site244],9.74 ± 0.014
19,AAAGTATAAATAAATACACACATATTTATTTATATA [CACACA_site7375],8.37 ± 0.36
20,GAGAGGATCATCAATTCACACACATAAAAATGAAGT [CACACA_site9010],8.54 ± 0.4
21,AACATATGATTAAACTGTACAAGAAAAATATAACAT [XGTACX_site4477],9.23 ± 0.57
22,GTAATACCCAAACACACACACATACCCATATATATA [CACACA_site5510],8.88 ± 0.52
23,AGAAAGTAAAGCTGTTGTACTATTATATATATTTTA [XGTACX_site8090],8.59 ± 0.31

row,Sequence,gcPBM binding intensity (ln)
1,TTTCTTTTTAAATAATAATGTATAATAAAAAGTTCA [TGCATGCA_negctrl_site195],8.11 ± 0.35
2,TTTGTTTGATATATGTGTACATATATATATTATGCT [XGTACX_site3522],8.67 ± 0.34
3,AAGTACAATTCATGTATGCACTTTATTATATTTTAT,8.35 ± 0.29
4,TATAATATGTATATCTGTACATATTTTAAATCTAAT [XGTACX_site2426],8.08 ± 0.24
5,AAGATAAAATAATAAAGTACACATATAAATTGAAAA [XGTACX_site2113],8.85 ± 0.62
6,ATCATATCCACCAAATGAATAATATAAAATAATATA [XGTACX_negctrl_site193],8.44 ± 0.57
7,AAATAACATAATAAGGGTACATTAATTTCGATAATG [XGTACX_site835],8.51 ± 0.25
8,TATATATATATATATGCACACATTTATACAATTTTA [CACACA_site2986],10.2 ± 0.3
9,ATCAAATTATAATCATGTACAAATAAAAAAAAAAAA [XGTACX_site313],8.43 ± 0.53
10,AGAAAAAAAAAAAAAAAACACACGGTACATCCAAAG [CACACA_site124],8.66 ± 0.53
11,AAATATCTACAAATATGTACATATTTTTTTTGGCTT [XGTACX_site6301],8.72 ± 0.26
12,TATTTTGTCATAGAACGTACTTATAAATATTTTTTT [XGTACX_site8424],8.67 ± 0.37
13,ATAGAAGCTGTTGACGAAGAAAAAAAAAAAAAAAAA [CACACA_negctrl_site110],8.37 ± 0.56
14,TAGATATTTTTGAAAAGTACAAATTTTTAAAAATTA [XGTACX_site4420],8.34 ± 0.33
15,GTATGATTACAAGAAAGTAGTCCACTTTAACAACAA [CACACA_negctrl_site1304],8.59 ± 0.37
16,TTATATAATGACAAAAAAAAAAAAAAAAAAAAAAAA [CACACA_negctrl_site1467],8.04 ± 0.36
17,TAATTTATCCTATAATGTACTTATAAAATATATCAT [XGTACX_site1460],8.32 ± 0.26
18,AGTCCATTTTATTATTGTACATATTAATTTATATCA [XGTACX_site672],9.08 ± 0.3
19,ATTCAGAGTATATAAAAATTAATATATACATAATAT [CACACA_negctrl_site1782],8.44 ± 0.58
20,ATGTACATAAACCGCACACATATAAAAAAATAAATA [CACACA_site5571],8.71 ± 0.35
21,ATATATATATAAATATGTACATATATACATATATAC [XGTACX_site2374],9.515 ± 0.092
22,AATATTTTGTTATTTATTTAATCTAATATTACTATC [CACACA_negctrl_site4],8.43 ± 0.16
